From PubChem BioAssay AID1963576 (National Center for Advancing Translational Sciences (NCATS), 2024)
Screen size: about 46,000 compounds; about 60 (0.1%) were called active. Another 3% or so got no clear call; they are omitted. The call rests on the fitted dose curve; in most records, active means well fitted inhibition curve with a large enough effect; inconclusive means small, poorly fitted or top-dose-only effect; inactive means no such curve, though single readings can be large or run the other way. Some of the results follow.

test: Primary qHTS assay for Inhibitors of ovarian cancer metastasis using an organotypic tumor microenvironment (TME) model.; further: nearly all actives have a fitted effect of over 65% in size; conditions: SKOV3ip1-GFP adhesion/invasion on 3D omental model, fluorescence; series mostly up to 45.8 µM; activity change, negative = inhibition: at the top concentration
Description: PI: Ernst Lengyel MD., Ph.D. Department of Obstetrics and Gynecology, Section of Gynecologic Oncology University of Chicago Medicine, Chicago, Illinois. The tumor microenvironment (TME) is a key determinant of metastatic efficiency. We performed a quantitative high-throughput screen (qHTS) of diverse medicinal chemistry tractable scaffolds (44,420 compounds) and pharmacologically active small molecules (386 compounds) using a layered organotypic, robust assay representing the ovarian cancer metastatic TME. This 3D model contains primary human mesothelial cells, fibroblasts, and extracellular matrix, to which fluorescently labeled ovarian cancer cells are added. Initially, 100 compounds inhibiting ovarian cancer adhesion/invasion to the 3D model in a dose-dependent manner were identified. Of those, eight compounds were confirmed active in five high-grade serous ovarian cancer cell lines and were further validated in secondary in vitro and in vivo biological assays. […] Specifically, NCGC00117362 and PP-121 inhibited ovarian cancer adhesion, invasion, and proliferation, whereas milciclib inhibited ovarian cancer invasion and proliferation. […] To evaluate the clinical potential of NCGC00117362, structure - activity relationship studies were performed. […] The three compounds identified have promise as therapeutics for prevention and treatment of ovarian cancer metastasis.
PROTOCOL TABLE (as described by Inglese J, Shamu CE and Guy RK. 2007) SEQUENCE No. (e.g., 1, 2, 3, etc.); […] (e.g., Cells, Incubation, Reagent, etc.); VALUE; DESCRIPTION. 1; Cells; 4 uL; primary human omental fibroblast, black, clear bottom, low base, 1536-well Aurora assay plate. 2; Incubation; 48 hr; 37C. 3; Cells; 3 uL; 1,200 SKOV3ip1-GFP cells. 4; Compounds; 23nL; acoustic dispenser. 5; Incubation; 2 hr; room temperature. 6; Incubation; 16 hr; 37C. 7; Wash; 5 uL; 1x PBS. 8; Fixing; 5 uL; 4% paraformaldehyde (PFA). 9; Incubation; 15 min; room temperature 10; Wash, 5 uL; 1x PBS. 11; Detection; Fluorescence, excitation filter 488 nm, emission filter 509 nm. NOTES (numbers refer to Sequence numbers above) 1. For the 1,536-well format, 40 primary human omental fibroblasts and 400 mesothelial cells were seeded with 0.02 µg fibronectin and 0.02 µg collagen type I in 4 µL of growth media (2.3 mm2; Supplementary Fig. S1A). 2. Assay plates were incubated for 48 hours at 37 C. 3. After incubation, 1,200 SKOV3ip1-GFP were seeded in 3 µL of serum-free media (growth media minus FBS) on top of primary human omental cells. 4. Compounds or controls were added to each well immediately after the addition of the cancer cells. Compounds were screened in four doses (0.36-46 µmol/L), and the plates contained the positive control (Tomatine) in eight doses (0.035-75 µmol/L) and DMSO (equal volume controls) 5 - 6. The plates were incubated at room temperature for 2 hours and then at 37 degrees C for 16 hours. 7 - 10. Following incubation, the media were aspirated and each well washed with PBS (5 µL) and then fixed with 4% paraformaldehyde (PFA; 5 µL). After 15 minutes, the PFA solution was aspirated, PBS (5 µL) was added. 11. The number of GFP-labeled cells analyzed using a fluorescent cytometer TTP LabTech Acumen eX3 using 488 nm excitation filter and 509 nm emission filter. Data was normalized to the DMSO treated for negative and Tomatine treated wells for positive control. REFERENCES: Inglese J, Shamu CE and Guy RK, Reporting data from high throughput screening of small molecule libraries, Nature Chemical Biology, 2007, 3(8): 438-441. doi.org/10.1038/nchembio0807-438. Yasgar A, Shinn P, Jadhav A, Auld DS, Michael S, Zheng W, Austin CP, Inglese J and Simeonov A, Compound Management for Quantitative High-Throughput Screening. J. Assoc. Lab. Auto., 2008, 13: 79-89. doi: 10.1016/j.jala.2007.12.004.

outcome, inactive:
Cc1cccc(-n2c(SCC(=O)Nc3ccccc3Cl)nc3n[nH]c(C)c3c2=N)c1
CCC1CCCCN1CCCNC(=O)c1ccc2c(c1)N(Cc1cccc(C)c1)C(=O)c1ccccc1S2(=O)=O (stereo unspecified)
COc1ccccc1CNC(=O)C1CCN(c2nn3c(=O)cc(C)nc3s2)CC1
CCc1ccccc1NC(=O)CSc1nc2c(oc3ccccc32)c(=O)n1-c1ccccc1
CC(=O)c1ccc(NC(=O)CN2C(=O)c3cccnc3Sc3ccccc32)cc1
COc1cc(C(=O)NCC(c2ccc(N(C)C)cc2)N2CCCC2)cc(OC)c1OC (stereo unspecified)

Activity change, negative = inhibition, inactive:
Cn1nc(-c2ccccc2)c(-c2ccccc2)c(C(=O)Nc2ccc(S(N)(=O)=O)cc2)c1=O 0.568%
COc1cccc(C(=O)Nc2ccc3nc(SCc4ccc(C)cc4)sc3c2)c1 6.69%
O=C(NCC(c1cccnc1)N1CCOCC1)C(=O)Nc1cccc(Cl)c1 (stereo unspecified) 6.48%
CSc1ccc(CCNC(=O)c2sc3ncccc3c2-n2cccc2)cc1 4.6%
CCOc1ccc(NC(=O)CN2C(=O)CCSc3ccc(S(=O)(=O)N4CCCC4)cc32)cc1 6.22%
COC(=O)c1ccc(NC(=O)N2CCc3c([nH]c4ccccc34)C2c2ccc(C)cc2)cc1 (stereo unspecified) -20.1%
COc1cccc(-n2cc(C(=O)NCCc3cccc(C)c3)c3ccccc3c2=O)c1 -0.776%
Cc1ccc(C)c(N2CCN(C(=O)C(C)n3nc(C)c4sc5ccccc5c4c3=O)CC2)c1 (stereo unspecified) -3.4%
COc1ccc(Cn2c(=O)c3oc4ccccc4c3n(CC(=O)Nc3cc(C)cc(C)c3)c2=O)cc1 -4.71%
Cc1c2cnn(CC(=O)NCCc3ccccc3)c(=O)c2c(C)n1Cc1ccccc1Cl 7.33%
O=C(O)c1ccc(-n2nc(-c3ccccc3O)nc2-c2ccccc2O)cc1 -4.57%
O=C(NCc1ccccc1Cl)C(=O)NCC(c1ccco1)S(=O)(=O)c1cccs1 (stereo unspecified) 3.52%
Cc1ccc(-c2nc3ccc(Br)cn3c2Nc2ccc3c(c2)OCO3)o1 -15.1%
O=C(COc1ccccc1F)NC1CC(=O)N(c2ccc3c(c2)OCCO3)C1 (stereo unspecified) 11.4%
CCc1ccc(NC(=O)CSc2nc(=O)n(Cc3cccnc3)c3c2CCC3)cc1 8.28%
COc1ccc(/C=C(\C#N)c2nc(-c3ccc(Cl)c(Cl)c3)cs2)cc1OC -4.59%
CCOc1ccc(NC(=O)CSc2nc3nc(C)c(Cc4ccccc4)c(C)n3n2)cc1 -5.55%
CC(=O)c1cccc(NC(=O)Cn2cnc3c2c(=O)n(C)c(=O)n3C)c1 -5.22%
COc1ccc(-n2c(CCC(=O)O)ccc2-c2ccccc2)cc1 2.91%
CCOC(=O)c1cccc(NC(=O)Cc2ccc(NC(=O)N3CCCCc4ccccc43)cc2)c1 5.73%
